Data reported in PubChem BioAssay AID760 (NMMLSC, 2007).
In all, about 190,000 compounds went through this assay and about 360 (0.19%) were called active. This list was built around the results that the source calls inconclusive (neither active nor inactive); the mix of calls is not that of the screen.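 How the source made its calls: active means GTP binding activity at least 20 points away from 100%, either lowered or raised; inconclusive means signal likely due to the compound's own green fluorescence; inactive means the rest.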

Each molecule was assayed against Ras-related protein Rab-2A (Canis lupus familiaris) (UniProt P61105) (assay: Rab2 wt fluorescent GTP binding changes, either direction – biochemical, dog, bead-based flow cytometry, multiplex, primary screen (AID 760;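 further: 0% = beads with excess unlabeled GTP and 100% = no-compound control corrected for plate trend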)). Settings: GST-Rab2 wt beads, Bodipy-GTP binding, at 10 µM.

Row | Structure (SMILES) | GTP binding activity
1 | CC(C)c1nc(-c2ccccc2)c(-c2ccccc2)[nH]1 | inconclusive: 105%
2 | O=C(O)c1ccccc1C(=O)NNc1cccc(Cl)n1 | inactive: 94%
3 | O=C(NC1CCCc2ccccc21)C1CCC(CNS(=O)(=O)c2cccc3nsnc23)CC1 (configuration not stated) | inconclusive: 101%
4 | O=C(Nc1ccccc1)C1CCCN1C(=O)Nc1ccccc1[N+](=O)[O-] (configuration not stated) | inconclusive: 95%
5 | Cc1cc(C)cc(-n2c(C)cc(/C=N\NC(=O)COc3cccc4cccnc34)c2C)c1 | inconclusive: 88%
6 | Cc1ccc(NC(=O)CN2C(=O)N/C(=C/c3cc(C)n(-c4cccc(C(=O)O)c4)c3C)C2=O)cc1 | inconclusive: 79%
7 | COc1ccccc1NS(=O)(=O)c1cc(NC(=O)c2ccccc2F)ccc1N1CCOCC1 | inconclusive: 91%
8 | CCSc1nnc(-c2cc(Br)ccc2N=Cc2c(C)[nH]n(-c3ccccc3)c2=O)c(=O)[nH]1 | inconclusive: 80%
9 | O=C(COc1cccnc1[N+](=O)[O-])Nc1cccc(S(=O)(=O)N2CCCCC2)c1 | inactive: 96%
10 | O=C(N1CCCCC1)N1CCN(C(c2ccccc2)c2ccccc2)CC1 | inconclusive: 104%
11 | COc1ccc(-n2c(=S)[nH]c3cc(C(=O)NCCCN4CCCC4=O)ccc3c2=O)cc1 | inconclusive: 105%
12 | O=S(=O)([N-]c1nc2ccccc2nc1-[n+]1ccc(-c2ccncc2)cc1)c1ccccc1 | inactive: 94%
13 | N#CCCN(CCC#N)c1nncs1 | inconclusive: 109%
14 | O=C(Nc1cccc2nsnc12)c1ccc(F)cc1 | inconclusive: 102%
15 | COc1cc(/C=N/NC(=O)C(Cc2c[nH]c3ccccc23)NC(=O)OCc2ccccc2)cc([N+](=O)[O-])c1O (configuration not stated) | active: 77%
16 | CN1C2CCC1/C(=C\c1ccccc1)C(=O)/C2=C\c1ccccc1 | inconclusive: 108%
17 | CCCCCCC1CCC(c2nc(-c3ccncc3)no2)CC1 (configuration not stated) | inactive: 96%
18 | COc1ccc(CCNC(=O)Cn2nc(C(=O)O)c3ccccc3c2=O)cc1OC | inconclusive: 97%
19 | Cn1nc(C(=O)Nc2cccnc2)c2ccccc2c1=O | active: 69%

Row | Structure (SMILES) | GTP binding activity
20 | Cc1ccc(C(C(=O)NC(C)(C)C)N(Cc2cccnc2)C(=O)C(=O)NC2CCCCC2)o1 (configuration not stated) | inactive: 97%
21 | O=C(CS(=O)(=O)c1c[nH]c2ccccc12)N1CCc2ccccc21 | inactive: 98%
22 | CCOC(=O)c1nn(-c2cccc(OC)c2)c2nc(Nc3ccccc3)cc(=O)n12 | inconclusive: 102%
23 | C/C(CCc1ccc2c(c1)OCO2)=N\N=C1\NC(=O)CC(C(=O)Nc2ccccc2)S1 (configuration not stated) | inconclusive: 109%
24 | Cc1ccc(CN(C(=O)Cn2nnc3ccccc32)C(C(=O)NCc2ccco2)c2cccs2)cc1 (configuration not stated) | inconclusive: 93%
25 | CCCCOc1ccc(C(=O)N/N=C/c2cn[nH]c2-c2ccc(OC)c(OC)c2)cc1 | inconclusive: 90%
26 | CC(=O)c1c(C)nc(-c2ccccc2)n1O | inconclusive: 103%
27 | CCOC(=O)c1c(NC(=O)COC(=O)Cn2c(C)nc3ccccc32)sc2c1CCCC2 | inconclusive: 103%
28 | COc1ccc(-c2nnc3n2N=C(C)CS3)cc1OC | inactive: 93%
29 | CCCCn1c(N)c(Sc2ccc(C)cc2)c(=O)[nH]c1=O | inconclusive: 106%
30 | C/C(N)=C(/C#N)C(=O)CSc1cc(C)c2ccccc2n1 | inactive: 94%
31 | CCc1nnc2c(N(C)C)nc3ccccc3n12 | inactive: 85%
32 | C(=N\Nc1nc(Nc2ccccc2)nc(Nc2ccccc2)n1)/c1cccnc1 | inconclusive: 91%
33 | COc1ccc(CS(=O)(=O)CC2(O)CCN(C(=O)c3cccc(C(F)(F)F)c3)CC2)cc1 | inactive: 98%
34 | O=C(N/N=C/c1cccc(O)c1)c1ccc(NC(=O)c2cccc([N+](=O)[O-])c2)cc1 | inconclusive: 93%
35 | CC1(C)CC(=O)c2c(O)cc(OCc3ccc([N+](=O)[O-])cc3)cc2O1 | inconclusive: 104%
36 | COc1ccc2oc(=O)c(C(=O)N3CCN(c4ccccc4F)CC3)cc2c1 | inconclusive: 95%
37 | O=C1CN(CC(=O)Nc2cccc(Cl)c2Cl)c2ccccc2N1 | inconclusive: 95%
38 | CCC(Oc1ccc2ccccc2c1)C(=O)O (configuration not stated) | inconclusive: 127%

Row | Structure (SMILES) | GTP binding activity
39 | O=C(Cn1cnc2c(nnn2Cc2ccc(F)cc2)c1=O)NC1CCCC1 | inconclusive: 95%
40 | CCOC(=O)c1cc(C(=O)OCC)c2ccccn2c1=O | inactive: 88%
41 | CC(Oc1ccc(Cl)cc1Cl)c1nc(-c2ccc(NC(=O)c3ccccn3)cc2)no1 (configuration not stated) | inactive: 100%
42 | O=C(COC(=O)C1CCN(/C=C/C(=O)C(F)(F)F)CC1)Nc1cccc(F)c1 | inactive: 99%
43 | Cc1ccc(OCC(=O)N/N=C\c2ccc(O)cc2)c([N+](=O)[O-])c1 | inconclusive: 92%
44 | Cc1cnc(C(=O)OCC(=O)N(Cc2ccccc2)C(C)C)cn1 | inactive: 98%
45 | O=C(NCCn1ccc2ccccc21)c1ccc(S(=O)(=O)N2CCOCC2)cc1 | inactive: 102%
46 | O=C(OCc1cc2ccccc2[nH]c1=O)C1CCCO1 (configuration not stated) | inconclusive: 105%
47 | O=C1c2ccccc2C(=O)N1CCCOc1ccccc1 | inconclusive: 96%
48 | COc1ccc(S(=O)(=O)N(C)CC(=O)N2CCOCC2)cc1Cl | inconclusive: 90%
49 | COc1ccccc1-n1c(=O)c2c3c(sc2n2c(=S)[nH]nc12)CCC3 | inconclusive: 89%
50 | Cc1[nH]c2ccccc2c1C(=O)CNc1nccs1 | inconclusive: 459%
51 | CCOc1cc(C2C(C#N)=C(N)OC3=C2C(=O)CC(C)(C)C3)cc([N+](=O)[O-])c1O (configuration not stated) | inconclusive: 91%
52 | CCC(C)(C)NC(=O)c1ccc(S(=O)(=O)N(C)c2ccccc2OC)cc1 | inconclusive: 91%
53 | CC(C)Oc1cc(N)c(Cl)cc1Cl | inactive: 96%
54 | CC(C)c1ccc(NC(=O)COc2ccc(F)cc2C(=O)c2cnn(-c3ccccc3)c2)cc1 | inactive: 100%
55 | O=C(COc1ncnc2cc([N+](=O)[O-])ccc12)NCc1ccc2c(c1)OCO2 | inconclusive: 69%
56 | CCCN(CCC)c1cc(Cl)nc(N)n1 | inconclusive: 94%
57 | O=C(O)c1ccccc1SCc1ccc2c(c1)OCO2 | active: 127% [activator]
